Our source for the viability, T/C and IC50 values is PubChem BioAssay AID1918991 (Molecular Pharmacology Branch, DTP, NCI, 2023).

One may read the IC50 as the midpoint of a concentration-inhibition curve.

Some entries of the source have several records that differ or are many. They are shown here; other results are not. There may be further records. Values given together repeat one measurement across runs, samples, wells, individuals or studies. Marks such as (2×) count equal records among those shown.

This assay has as its system 186277-243-T-J2-PDC complex spheroid growth. Kind of assay: Anticancer human tumor 186277-243-T-J2-PDC patient-derived colon adenocarcinoma cell line growth inhibition [AhR]. Particulars: for viability, T/C: stronger effect = lower value; for IC50: compound alone. The source says: Multicellular complex tumor spheroid response to aryl hydrocarbon receptor antagonists in combination with a variety of drugs and investigational agents in selected tumor cell lines
The current study was undertaken to assess response to aryl hydrocarbon receptor antagonists in combination with standard-of-care drugs and investigational agents in solid tumor complex spheroid models. Complex spheroids include a stromal component modeled by human endothelial cells (HUVEC) and fibroblasts modeled by human mesenchymal stem cells (MSCs). The concentration ranges selected for each drug and investigational agent were based upon clinically achievable concentrations if the clinical Cmax of the agent was known.
Compounds. The drugs and investigational agents: BAY 2416964 (NSC825713), GNF351 (NSC835774), CH-223191 (NSC835775), CPI-455 (NSC825282), aza-TdCyd (NSC777586), decitabine (NSC127716), belinostat (NSC758774), entinostat (NSC756642), pevonedistat (NSC761192), tazemetostat (NSC777109), talazoparib (NSC765396), olaparib (NSC753686), selinexor (NSC780203), nedisertib (M3814, NSC802822), bortezomib (NSC756655), venetoclax (NSC766270), doxorubicin (NSC123127), elimusertib (BAY189344, NSC800525), ceralasertib (AZD6738, NSC777638), TAK-243 (NSC785004), alisertib (NSC759677), etoposide (NSC141540), topotecan (NSC609699), eribulin (NSC707389), gemcitabine (NSC613327), carboplatin (NSC241240), cisplatin (NSC119875), and SN-38 (NSC673596) were obtained from the National Cancer Institute (NCI) Developmental Therapeutics Program Chemical Repository (32). The FDA-approved anticancer drug set is available from the Developmental Therapeutics Program at https://dtp.cancer.gov/organization/dscb/obtaining/available plates.htm. […] The stock solutions were prepared in dimethyl sulfoxide (DMSO, Sigma-Aldrich, St. Louis, MO, cat. D2650), except for the platinum compounds which were prepared in saline (Quality Biological, Gaithersburg, MD, cat. 114-055-101), at 800-fold the tested concentration and stored at -70 degrees C prior to their use. All drugs and investigational agents were tested over a range starting from a high concentration at or near the clinical Cmax and decreasing in half-log increments. If the clinical Cmax for an agent had not been determined, the highest concentration tested was 10 microM (Table 1).
Cell Culture. All cells were maintained in an incubator at 37 degrees C and 5% CO2 with 95% humidity. The PDC lines were cultured according to standard operating procedures established by the NCI PDMR (https://pdmr.cancer.gov). Briefly, all PDCs were thawed and cultured in Matrigel-coated flasks prepared with a working solution of 1X Ham's F-12 nutrient mix, without supplementation (Invitrogen, Waltham, MA, cat. 11765054), 100 U/mL penicillin-streptomycin (Invitrogen, cat. 15140122), and 2.5% Matrigel (Corning Inc., Corning, NY, cat. 354248) for the first three passages. All PDCs were cultured in complete DMEM/F-12 media containing advanced DMEM/F-12 (Invitrogen, cat. 12634028), 4.9% defined fetal bovine serum, heat inactivated (HyClone Laboratories Inc., Logan, UT, cat. SH30070.03HI), 389 ng/mL hydrocortisone (Sigma-Aldrich, cat. H4001), 9.7 ng/mL human EGF recombinant protein (Invitrogen, cat. PHG0313), 23.4 microg/mL adenine (Sigma-Aldrich, cat. A2786), 97.3 U/mL penicillin-streptomycin (Invitrogen, cat. 15140122), 1.9 mM L-glutamine (Invitrogen, cat. 25030081), and 9.7 microM Y-27632 dihydrochloride (Tocris Bioscience, Bristol, United Kingdom, cat. 1254). The PDCs were cultured in complete DMEM/F12 media without 10 microM Y-27632 dihydrochloride for at least two passages prior to the screen. The established cell lines NCI-H1341 and […] were cultured in DMEM/F-12, HEPES (Invitrogen, cat. 11330032), 5% defined fetal bovine serum (HyClone Laboratories Inc., cat. SH30070.03), ITS premix universal culture supplement [insulin (5 microg/mL), transferrin (5 microg/mL), and selenious acid (5 ng/mL)] […]
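Also: spheroids exposed to compounds for seven days before the viability read.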
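For viability, T/C in this document: luminescent signal used as a stand-in for viable cell amount; 100% = DMSO vehicle control wells.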

`CC(C)CC(NC(=O)C(Cc1ccccc1)NC(=O)c1cnccn1)B(O)O` (centres undefined): for the setting “compound alone 0.00949 µM”, the viability, T/C was 3.18%, 76.2%, 87.4%.
Take `CC(CO)NC(=O)c1cc(-c2ccc(Cl)cc2)nn(-c2cnn(C)c2)c1=O` (centres undefined): the viability, T/C (compound alone 0.1 µM) was 88.7, 95.4, 109, 105, 97.6, 104, 102, 99 (2×), 106, 107, 108, 99.3, 90.1, 82.2, 101, 98.2, 87.1, 103, 111%; the viability, T/C (compound alone 0.316 µM) was 97.3, 101 (3×), 108 (2×), 105 (2×), 104 (2×), 107, 111 (2×), 103, 109 (2×), 88.3, 99.2, 89.8, 118, 102%; the viability, T/C (compound alone 3.16 µM) is 104, 98, 83, 95.2, 97.5, 99.4, 100, 90.5, 112, 84.1, 97.6, 91.3, 99, 102, 91.7, 98.7, 89.5, 92.4, 106%.
For `Cc1ccccc1N=Nc1ccc(NC(=O)c2ccnn2C)c(C)c1`, the viability, T/C (compound alone 0.1 µM) is 102 (3×), 99.3, 99.1, 97.7, 96.8, 103, 101 (2×), 115, 85, 97.9, 91.9, 108 (2×), 89.6, 96.5, 104, 88.9% and the viability, T/C (compound alone 0.316 µM) was 86.2, 101 (2×), 86.3, 94.8, 114, 111 (2×), 93.7 (2×), 100 (2×), 99.8, 105 (2×), 106, 98.2, 103, 90.2, 88.4%.
On to `CC1COCCN1c1cc(-c2ccnn2C)c2ccnc(-c3ccn[nH]3)c2n1` (centres undefined), for which the viability, T/C (compound alone 0.1 µM) is 6.77%, 37.1%, 39%.
For the molecule `O=C(C=Cc1cccc(S(=O)(=O)Nc2ccccc2)c1)NO`, the viability, T/C (compound alone 3.16 µM) is given as 2.65%, 13.5%, 29.4%.
As for `COc1cccc2c1C(=O)c1c(O)c3c(c(O)c1C2=O)CC(O)(C(=O)CO)CC3OC1CC(N)C(O)C(C)O1` (centres undefined), the concentration for half-maximal inhibition (IC50) is < 31.6 nM, 188 nM, 459 nM. The viability, T/C (compound alone 0.316 µM) was 6.89%, 30.9%, 71.2%.
On to `CCc1c2c(nc3ccc(O)cc13)-c1cc3c(c(=O)n1C2)COC(=O)[C@]3(O)CC`, for which the half-inhibitory concentration (IC50) is given as < 0.949 nM, 27.1 nM, 77 nM.
On the same count and under the same terms, for `COc1cc(Nc2ncc3c(n2)-c2ccc(Cl)cc2C(c2c(F)cccc2OC)=NC3)ccc1C(=O)O` the value was < 31.6 nM and > 10 µM (2×).
For the molecule `COc1cc(C2c3cc4c(cc3C(OC3OC5COC(C)OC5C(O)C3O)C3COC(=O)C23)OCO4)cc(OC)c1O` (centres undefined), the half-maximal inhibitory concentration (IC50) was 276 nM, 1.65 µM, 9 µM.
For `CC1(C)CCC(CN2CCN(c3ccc(C(=O)NS(=O)(=O)c4ccc(NCC5CCOCC5)c([N+](=O)[O-])c4)c(Oc4cnc5[nH]ccc5c4)c3)CC2)=C(c2ccc(Cl)cc2)C1`, the viability, T/C (compound alone 10 µM) is given as 8.91%, 83.5%, 31.2%.
As to `Cc1cncc(-c2nc(NCCc3c[nH]c4ccccc34)c3ncn(C(C)C)c3n2)c1`, the concentration for half-maximal inhibition (IC50) (AhR antagonist combinations, run of 07/18/2022) is on record as > 10 µM, 8.81 µM, 9.25 µM, 9.4 µM, 9.2 µM, 6.79 µM, 7.32 µM, 6.38 µM, 7.28 µM, 6.71 µM. Besides, the viability, T/C runs as follows: (compound alone 0.1 µM) 99.5, 103 (2×), 97.3, 96, 97.5, 85.9, 93.5, 106, 84.5, 97.9, 90.6, 81.9, 80.9, 89.1, 98.9, 94.8, 89.9, 97.8, 107%; (compound alone 1 µM) 103 (2×), 105 (2×), 110, 94.9, 94.5, 98, 104, 88.7, 106, 88.5, 117, 100, 107, 101, 91.6, 96.3, 98.3, 111%; (compound alone 3.16 µM) 100 (2×), 104 (2×), 109, 101, 97.6, 110 (2×), 120, 88.2, 106 (2×), 102, 93.2, 107, 108, 84.6, 91.8, 111%; (compound alone 10 µM) 56.4, 64.5, 66.6, 57.9, 110, 54.1, 44, 45.9, 47.8, 45.8, 102, 96.2, 78, 83.8, 79.3, 89.5, 77.1, 77, 83.5, 97.5%.
